Measured values published in a compilation of properties of binary mixtures (doi:10.1016/j.jct.2017.12.009).
The densities may have been worked out from excess volumes.

Assay: xn = mol fraction of the nth substance listed
Details: 101 kPa

CO + CCCC[N+]1(C)CCCC1.O=S(=O)([O-])C(F)(F)F
x2 = 0
Details	mass density [kg/m3]
278.15 K	805.1
288.15 K	795.7

CCCC[N+]1(C)CCCC1.O=S(=O)([O-])C(F)(F)F + CO
mass density [kg/m3]
Details	278.15 K	288.15 K	298.15 K	308.15 K	318.15 K
x1 = 0.0501	918.3	909.3	900.3	891.4	882.4
x1 = 0.1004	992.5	–	–	966.6	957.9
x1 = 0.1503	1045	–	1028.1	1019.7	1011.3
x1 = 0.2002	–	1075.9	–	1059.4	1051.2
x1 = 0.3002	1138.8	1130.8	1122.8	1114.8	1106.9
x1 = 0.3996	1175.4	1167.5	1159.7	–	1144.2
x1 = 0.4998	1201.5	1193.8	1186.1	1178.5	1170.9
x1 = 0.6006	1221.3	1213.6	1206.1	–	1191
x1 = 0.7015	1236.3	1228.8	1221.4	1213.9	1206.6
x1 = 0.8013	1248.6	1241.2	–	1226.5	–
x1 = 0.8427	1253	1245.6	1238.2	1230.9	1223.6
x1 = 0.9008	1258.5	1251	1243.7	1236.4	1229.2
x1 = 0.9514	–	1255.3	1248	1240.8	1233.6
x1 = 1	1267.1	–	1252.1	1245	1237.8
